PubChem BioAssay AID1745853 (National Center for Advancing Translational Sciences (NCATS), 2022)
Several values for one entry are separate records, joined by “and”; a condition that tells them apart may be missing. Equal entries are not always repeated. This is one part of the list. Further columns of the screen follow, without active or inactive calls.

Columns and labels:
Assay in all cases: Primary Screen for Target Class Profiling of Small Molecule Inhibitors of Methyltransferases
[1] = biological target: Glycine N-methyltransferase (Homo sapiens) (UniProt Q14749); conditions: purified enzyme, MTase-Glo SAH luminescence; measured here: GNMT inhibition; at 40 µM; stronger effect = lower value
Outline: (§1)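 Each enzyme was reacted with SAM and its substrate, with compounds tested once at 40 uM; SAH formed was read by MTase-Glo luminescence.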

[2] = biological target: Guanidinoacetate N-methyltransferase (Homo sapiens) (UniProt Q14353); conditions: purified enzyme, MTase-Glo SAH luminescence; measured here: GAMT inhibition; at 40 µM; stronger effect = lower value
Outline: as §1

[3] = biological target: Histamine N-methyltransferase (Homo sapiens) (UniProt P50135); conditions: purified enzyme, MTase-Glo SAH luminescence; measured here: HNMT inhibition; at 40 µM; stronger effect = lower value
Outline: as §1

[4] = biological target: Nicotinamide N-methyltransferase (Homo sapiens) (UniProt P40261); conditions: purified enzyme, MTase-Glo SAH luminescence; measured here: NNMT inhibition; at 40 µM; stronger effect = lower value
Outline: as §1

[5] = biological target: Phenylethanolamine N-methyltransferase (Homo sapiens) (UniProt P11086); conditions: purified enzyme, MTase-Glo SAH luminescence; measured here: PNMT inhibition; at 40 µM; stronger effect = lower value
Outline: as §1
% is scaled to controls: 0 for no effect and ±100 for the full control effect.

Row | SMILES | activity change, negative = inhibition [1] | activity change, negative = inhibition [2] | activity change, negative = inhibition [3] | activity change, negative = inhibition [4] | activity change, negative = inhibition [5]
1 | CC(C)=CCC/C(C)=C/CCC1(C)Oc2c(c(O)cc3c2CN(C(CCC(=O)O)C(=O)O)C3=O)CC1O (stereo not drawn) | -0.244% | 1.42% | 7.31% | -12.7% | -2.62%
2 | CCCNC(=O)C1N(c2ccc(OC)cc2)C(=O)C12CCCCC2 (stereo not drawn) | 0.805% | 1.03% | 0.836% | -3.2% | 3.49%
3 | O=C(CCc1nnc2n(Cc3ccccc3)c(=O)c3ccccc3n12)N1CCN(c2ncccn2)CC1 | -13.1% | 3.57% | -2.87% | -6.25% | -5.22%
4 | O=C(CC(c1ccccc1)c1ccccc1)N1CCN(C(c2ccccc2)c2ccccc2)CC1 | 1.9% | -30.6% | -4.86% | -30.9% | -20.7%
5 | CC(C)OCCCn1c(=O)c2ccccc2n2c(SCC(=O)Nc3ccc(C(C)C)cc3)nnc12 | -0.236% | 0% | 7.39% | -10.1% | 2.94%
6 | CN(C)C[C@@H]1CN(C)C[C@H]1NC(=O)c1cnccn1 | -7.64% | -16.5% | -3.99% | -12.8% | -10.1%
7 | CCCn1c(=O)c2ccc(Cl)cc2n2c(=O)n(CC(=O)Nc3ccccc3OC)nc12 | -1.48% | 4.9% | 8.88% | -1.98% | 2.05%
8 | COc1ccc(N2C(=O)c3cc4ccccc4n3CC2(C)C(=O)NC2CCCCC2)c(OC)c1 (stereo not drawn) | -6.98% | 1.64% | 6.76% | -22.9% | -0.82%
9 | Cc1ccccc1NS(=O)(=O)c1cc2[nH]c(=O)[nH]c2cc1C | -2.91% | 0% | -3.58% | -3.47% | -8.11%
10 | CN(C)c1cccc(C(=O)NC2CCN(c3cc(-c4cccs4)[nH]n3)C2)c1 (stereo not drawn) | -9.53% | -2.66% | -1.16% | -12.7% | -6.47%
11 | CC1CCN(S(=O)(=O)c2ccc3c(ccn3CC(=O)NCc3ccccc3)c2)CC1 | -2.02% | 4.56% | 0.667% | 2.87% | -2.21%
12 | c1ccc(-c2cnc(Nc3ccc(OCCN4CCCC4)cc3)s2)cc1 | -3.17% | 7.66% | -35.6% | -24.5% | -10.3%
13 | C=C(F)c1sc(CNCCCNc2cc(=O)c3ccccc3[nH]2)c(C)c1Br | -0.488% | -1.21% | -18.9% | -51.7% | -74.5%
14 | Cn1c(/C=C/C(=O)NO)ccc1/C=C/C(=O)c1cccc(F)c1 |  | 2.28% |  | -10.3% | 2.43%
15 | Cc1ccccc1CSc1nnc2n(CCCOC(C)C)c(=O)c3cc(Cl)ccc3n12 | 0.411% | 0% | 4.86% | -4.24% | 4.03%
16 | CC(C)CNC(=O)c1ccc2c(=O)n(C)c3nn(CC(=O)NC4CCCC4)c(=O)n3c2c1 | 8.01% | 2.61% | 11.6% | 5.9% | 9.3%
17 | CCOc1ccc(CCNC(=O)CCc2nnc3n(CCc4ccccc4)c(=O)c4ccccc4n23)cc1 | -7.11% | -1.3% | -6.51% | -4.4% | -11.2%

Row | SMILES | activity change, negative = inhibition [1] | activity change, negative = inhibition [2] | activity change, negative = inhibition [3] | activity change, negative = inhibition [4] | activity change, negative = inhibition [5]
18 | CC[C@H]1OC(=O)[C@H](C)C(=O)[C@H](C)[C@@H](OC2O[C@H](C)C[C@H](N(C)C)[C@H]2O)[C@@H](C)C[C@@H](C)C(=O)/C=C/[C@]1(C)O (stereo partly drawn) | -1.31% | -7.27% | 1.12% | -17% | 0.205%
19 | F[C@@H]1CN(C2CCC2)C[C@@H]1OCc1nc2ncccc2[nH]1 | -3.03% | -5.65% | -2.87% | -11.9% | -7.68%
20 | CC[C@@H](C)Nc1cc(C(=O)NC2CC3CC[C@@H](C2)N3c2ccc(C(=O)C3CC3)cn2)c(C)cc1C(N)=O (stereo partly drawn) | 0.819% | -0.559% | -1.92% | -47.6% | -6.82%
21 | O=c1c2ccccc2n2c(-c3ccc(F)c(F)c3)nnc2n1Cc1ccc(F)cc1 | 0.525% | 1.66% | 5.32% | 3.57% | 4.55%
22 | CCCN1C(=O)c2c(C(=O)NCc3ccc(OC(C)C)cc3)ncn2CC1(C)C(=O)NC1CCCC1 (stereo not drawn) | 1.37% | 1.7% | 3.1% | -0.215% | 7.41%
23 | C/C=C(/C)C(=O)O[C@@H]1C[C@@H](OC(=O)/C(C)=C\C)[C@@]2(C)C3C(=O)C=C(C)C2C3C1(C)C | -4.32% | -8.67% | 6.87% | -23.6% | -4.45%
24 | CS(=O)(=O)c1cccc(CNc2nc(Nc3ccc4c(c3)CCC(=O)N4)ncc2C(F)(F)F)c1 | -53.2% and -80.6% | -6.15% and -3.7% | -4.13% and 0.717% | -33.3% and -57.8% | -7.37% and -2.76%
25 | C[C@@H]1O[C@@H](O[C@@H]2[C@@H](O)[C@H](O[C@@H]3[C@@H](O)[C@@H](O)[C@H](O[C@H]4[C@H](OC(=O)[C@]56CCC(C)(C)C[C@H]5C5=CCC7[C@@]8(C)C[C@H](O)[C@H](O[C@@H]9O[C@H](C(=O)O)[C@@H](O)[C@H](O)[C@H]9O)[C@@](C)(CO)C8[C@H](O)C[C@@]7(C)[C@]5(C)CC6)OC[C@H](O)[C@@H]4O)O[C@H]3C)OC[C@H]2O)[C@H](O)[C@H](O)[C@H]1O (stereo partly drawn) | -1.8% | 2.93% | 3.12% | -7.39% | 8.86%
26 | COc1cccc(-c2cccc(C(=O)N3C[C@H](CO)C[C@H](CN(C)C)C3)c2)c1 | -8.21% | -8.05% | -85.6% | -12.2% | -4.22%
27 | Cc1onc(-c2ccccc2Cl)c1C(=O)N(C)c1ccc(Cl)cc1 | 8.1% | 3.25% | 5.52% | -13.2% | -2.51%
28 | CO[C@H]1C[C@@H]2CC[C@@H](C)[C@@](O)(O2)C(=O)C(=O)N2CCCC[C@H]2C(=O)O[C@H]([C@H](C)C[C@H]2CC[C@@H](OP(C)(C)=O)[C@H](OC)C2)CC(=O)[C@H](C)/C=C(\C)[C@@H](O)[C@@H](OC)C(=O)[C@H](C)C[C@H](C)/C=C/C=C/C=C/1C | -0.678% | 14.5% | 11.6% | 4.38% | 7.38%
29 | Cc1ccc(S(=O)(=O)N2CCc3nc(N(C)Cc4cccnc4)[nH]c(=O)c3CC2)cc1 | -5.63% | -7.12% | -3.41% | -18.1% | -11.9%
30 | CC1(C)CCC(CN2CCN(c3ccc(C(=O)NS(=O)(=O)c4ccc(NCC5CCOCC5)c([N+](=O)[O-])c4)c(Oc4cnc5[nH]ccc5c4)c3)CC2)=C(c2ccc(Cl)cc2)C1 | -4.2% | -19.6% | 4.71% | -52.7% | -23.7%
31 | Cc1cccc(N2CCN(C(=O)CCc3nnc4n(Cc5ccc(F)cc5)c(=O)c5ccccc5n34)CC2)c1C | -1.5% | -1.62% | 0.447% | -7.02% | -3.77%
32 | CCc1noc(-c2cn(C3CCN(C(=O)Cc4cccc(OC)c4)CC3)nn2)n1 | -7.12% | -6.94% | -4.39% | -11.7% | -2.03%
33 | COc1ccc(-c2noc(-c3cccn3CC(=O)NC(C)C)n2)cc1F | -5.64% | -8.55% | -3.45% | -8% | -7.78%
